{
  "source": "patent US9150659B2",
  "about": "“Anti-tace antibody molecules and their uses” (priority 2011, dated 2015)",
  "key": {"[1]": {"target": "T1, Recombinant human ADAM10 ectodomain (Homo sapiens, UniProt O14672)", "T1 construct": "Recombinant human ADAM10 ectodomain", "T1 sequence (O14672 214-672 limits assumed)": "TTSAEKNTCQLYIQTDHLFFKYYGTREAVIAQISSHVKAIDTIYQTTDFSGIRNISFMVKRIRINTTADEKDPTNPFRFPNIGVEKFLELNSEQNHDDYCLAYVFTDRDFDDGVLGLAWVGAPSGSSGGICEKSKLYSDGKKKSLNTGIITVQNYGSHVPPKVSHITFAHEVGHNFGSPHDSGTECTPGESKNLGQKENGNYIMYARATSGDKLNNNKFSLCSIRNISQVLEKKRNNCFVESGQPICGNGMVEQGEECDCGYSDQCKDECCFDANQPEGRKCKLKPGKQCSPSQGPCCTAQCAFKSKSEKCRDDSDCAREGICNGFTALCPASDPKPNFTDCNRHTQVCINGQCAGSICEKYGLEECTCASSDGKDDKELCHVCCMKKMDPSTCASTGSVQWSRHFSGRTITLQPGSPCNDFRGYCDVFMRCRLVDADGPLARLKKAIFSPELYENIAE", "assay": "ADAM10 quench fluorescent peptide cleavage assay", "assay_type": "biochemical", "settings": "titrated concentrations"}, "cell surface TACE": {"target": "T2, cell surface TACE (Homo sapiens, UniProt P78536)", "T2 construct": "endogenous in cells; host or cells: TOV21G, IGROV1, PC3, HeLa (HeLa stably over-expressing the substrate HB-EGF-alkaline phosphatase)", "T2 sequence (P78536 215-824)": "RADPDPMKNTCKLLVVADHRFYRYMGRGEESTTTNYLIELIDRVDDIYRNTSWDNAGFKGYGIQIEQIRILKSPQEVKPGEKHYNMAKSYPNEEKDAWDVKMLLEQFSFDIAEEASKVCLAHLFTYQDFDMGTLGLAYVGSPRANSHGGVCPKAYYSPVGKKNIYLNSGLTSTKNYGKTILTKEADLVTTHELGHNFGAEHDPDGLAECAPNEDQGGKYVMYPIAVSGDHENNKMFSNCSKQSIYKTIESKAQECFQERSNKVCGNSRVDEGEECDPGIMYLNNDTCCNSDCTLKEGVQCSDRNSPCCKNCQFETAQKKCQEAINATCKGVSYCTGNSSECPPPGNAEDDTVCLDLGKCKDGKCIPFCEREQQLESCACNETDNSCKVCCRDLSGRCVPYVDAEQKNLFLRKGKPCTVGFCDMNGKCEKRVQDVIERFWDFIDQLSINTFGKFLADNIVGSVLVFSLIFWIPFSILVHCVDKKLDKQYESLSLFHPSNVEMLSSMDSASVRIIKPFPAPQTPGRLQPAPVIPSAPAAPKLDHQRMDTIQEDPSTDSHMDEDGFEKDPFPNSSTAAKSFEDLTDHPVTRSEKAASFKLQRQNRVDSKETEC", "assay": "TACE cell surface shedding assay, HB-EGF-AP, HeLa", "assay_type": "cell-based", "settings": "PMA stimulated HeLa HB-EGF-AP", "description": "Each well was stimulated with […] phorbol 12-myristate 13-acetate (PMA) for and supernatants were harvested after 1 hour. Soluble TNF-α, TGF-α and Amphiregulin were quantified by sandwich ELISA (R&D System Duoset) and HB-EGF alkaline phosphatase was measured as described in Willems et al (2010)."}},
  "data": [
    {"molecule": "D1(A12) FAb: monovalent human FAb; heavy chain SEQ ID NO: 11, light chain SEQ ID NO: 12 (antibody, listed as Homo sapiens) heavy: EVQLVESGGGLVRPGGSLRLSCAASGFTFSSYAMSWVRQAPGKGLEWVSAISGSGGSTYYADSVKGRFTISRDNTKNSLYLQMTSLRADDTAFYYCVKDFGPGYGTGWFDYWGPGTLVTVSAASTKGPSVFPLAPSSKSTSGGTAALGCLVKDYFPEPVTVSWNSGALTSGVHTFPAVLQSSGLYSLSSVVTVPSSSLGTQTYICNVNHKPSNTKVDKKVEPKSC light: SDIQMTQSPSSLSASVGDRVTITCRASQSISSYLNWYQQKPGKAPKLLIHDASSLQSGVPSRFSGSGSGTDFTLTISSLQPEDFATYYCQQSFSIPLTFGGGTKMDIKRTVAAPSVFIFPPSDEQLKSGTASVVCLLNNFYPREAKVQWKVDNALQSGNSQESVTEQDSKDSTYSLSSTLTLSKADYEKHKVYACEVTHQGLSSPVTKSFNRGEC", "values": [
      {"measurement": "effect on ADAM10 proteolytic activity", "setting": "[1]", "value": "no effect"},
      {"measurement": "inhibitory profile of FAb compared with IgG1", "setting": "cell surface TACE", "value": "comparable inhibitory profile to the IgG1"}
    ]}
  ]
}
